Test results published in the supplement of paper PMC8728848.
This is one part of the list.

Assays:
[1] = target: Neu5Gc(a2-8)Neu5Gc(a2-6)Gal(b1-4)GlcNAc; assay: glycan array binding signal (z-score within array); higher = stronger binding; conditions: glycan notation: IUPAC condensed, linker removed
In short: (§1)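 The binding signal is a Z-score computed within each array and averaged over linkers. Arrays of the same protein sequence at different concentrations or buffers were also averaged together. Data originate from 3228 arrays in the Consortium for Functional Glycomics database, kept only where the protein sequence was available.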

[2] = target: Neu5Gc(b2-6)Gal(b1-4)GlcNAc; assay: as above; conditions: glycan notation: IUPAC condensed, linker removed
In short: as §1

B1: LecRKVI.2 (protein)
chain: RTTTNFAFRGFNGNQSKIRIEGAAMIKPDGLLRLTDRKSNVTGTAFYHKPVRLLNRNSTNVTIRSFSTSFVFVIIPSSSSNKGFGFTFTLSPTPYRLNAGSAQYLGVFNKENNGDPRNHVFAVEFDTVQGSRDDNTDRIGNDIGLNYNSRTSDLQEPVVYYNNDDHNKKEDFQLESGNPIQALLEYDGATQMLNVTVYPARLGFKPTKPLISQHVPKLLEIVQEEMYVGFTASTGKGQSSAHYVMGWSFSSGGERPIADVLILSELPPPPPNKAKKEGLNS
In the case of B1, the “glycan array binding signal (z-score)” value [1] is reported as -0.407 and the “glycan array binding signal (z-score)” value [2] is reported as -0.309.
